PubChem BioAssay AID1963441 (Molecular Pharmacology Branch, DTP, NCI, 2024)
Not every entry of the source has a single result; some have several. The other results are left out here. There may be further records. Values that stand side by side are repeated measurements across runs, samples, wells, individuals or studies. Brackets with × count equal records among those shown.

Tested on: NCI-H1876 complex spheroid growth, % test/control
Test: Anticancer human tumor NCI-H1876 cell line growth inhibition [Asc];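 further: compound exposure lasted 7 days starting three days after seeding; 100% = DMSO vehicle control wells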
Details: stronger effect = lower value
Description: Multicellular complex tumor spheroid response to apoptosis pathway targeting inhibitors Alrizomadlin, Pelcitoclax, and Dasminapant in combination with a variety of drugs and investigational agents in selected tumor cell lines
The MDM2 inhibitor alrizomadlin, the Bcl-2/Bcl-xL inhibitor pelcitoclax, and the IAPs inhibitor dasminapant were evaluated both individually and in combination with standard of care and investigational anticancer small molecules within a complex spheroid model of solid tumors. . Complex spheroids include a stromal component modeled by human endothelial cells (HUVEC) and fibroblasts modeled by human mesenchymal stem cells (MSCs). The concentration ranges selected for each drug and investigational agent were based upon clinically achievable concentrations if the clinical Cmax of the agent was known.
Compounds. The drugs and investigational agents: alrizomadlin (APG-115; NSC831270), pelcitoclax (APG-1252; NSC835773), dasminapant (APG-1387;NSC834197), TAK-243 (NSC785004), copanlisib (NSC809693), olaparib (NSC753686), talazoparib (NSC767125), cobimetinib (NSC 768068), eltanexor (KPT-8602, NSC 794443), abemaciclib (NSC 768073), sotorasib (NSC818433), adagrasib (NSC 831453), MRTX-1133 (NSC 836407), Iadademestat (ORY1001, NSC 806812), and RMC-4630 (NSC839698), were obtained from the NCI Developmental Therapeutics Program Chemical Repository. The FDA-approved anticancer drug set is available from the Developmental Therapeutics Program at https://dtp.cancer.gov/organization/dscb/obtaining/available plates.htm. […] The stock solutions were prepared in dimethyl sulfoxide (DMSO, Sigma-Aldrich, St. Louis, MO, cat. D2650) at 800-fold the tested concentration and stored at -70 degrees C prior to their use. All drugs and investigational agents were tested over a range starting from a high concentration at or near the clinical Cmax and decreasing in half-log increments. If the clinical Cmax for an agent had not been determined, the highest concentration tested was 10 microM.
The patient-derived cancer (PDC) cell lines include five colon adenocarcinomas: 186277-243-T-J2-PDC, 616215-338-R-J1-PDC, 439559-082-T-J2-PDC, 463943-066-T-J2-PDC, and 519858-162-T-J1-PDC; three pancreatic carcinomas: 323965-272-R-J2-PDC, 521955-158-R6-J3-PDC, and 521955-158-R2-J5-PDC; two uterine sarcomas: 327498-152-R-J2-PDC and 993429-296-R-J1-PDC; two rhabdomyosarcomas: 755483-174-R-J1-PDC and 772245-204-R-J1-PDC; two soft tissue sarcomas: 126254-015-R-J1-PDC and 494315-158-R-J1-PDC; two malignant fibrous histiocytomas: 317291-083-R-J1-PDC and 596521-263-R-J1-PDC; two breast carcinomas: 171881-019-R-J1-PDC and 885512-296-R-J2-PDC; and one ovarian carcinoma: 6556581-035-R-J-PDC were obtained from the NCI PDMR, (https://pdmr.cancer.gov). The established cell lines HSSY-2 synovial sarcoma (RRID:CVCL 8719), SYO-1 synovial sarcoma (RRID:CVCL_7146), MPNST malignant peripheral neural sheath tumor were obtained from the Sloan Kettering Institute. […]

## CCN1C(C(=O)NC23CCC(C(=O)O)(CC2)CC3)C(c2cccc(Cl)c2F)C2(C(=O)Nc3cc(Cl)ccc32)C12CCCCC2 (stereo not given)
Compound alone 0.03 µM
  viability, T/C: 119, 108, 103, 112, 114, 99.4, 107, 87.4, 98.9%
Compound alone 0.3 µM
  viability, T/C: 98, 106, 96.6, 107, 99, 128, 95.5, 97.2, 103%
Compound alone 0.949 µM
  viability, T/C: 128, 111 (2×), 105, 99.6, 101, 126, 113, 115%

## C=C(F)C(=O)N1CCN(c2nc(OCC3CCCN3C)nc3c2CCN(c2cccc4cccc(Cl)c24)C3)CC1CC#N (stereo not given)
Compound alone 10 µM
  viability, T/C: 26.9%, 17.3%, 0.97%

## CNC(C)C(=O)NC1CN(S(=O)(=O)c2cccc(S(=O)(=O)N3CCC4CCC(C(=O)NC(c5ccccc5)c5ccccc5)N4C(=O)C(NC(=O)C(C)NC)C3)c2)CCC2CCC(C(=O)NC(c3ccccc3)c3ccccc3)N2C1=O (stereo not given)
Compound alone 0.00316 µM
  viability, T/C: 96.7, 102, 77.7, 112, 105, 117, 109, 103% (2×)
